Laboratory results taken from patent US5473054A, “IGF-1 analogs” (Thomas Jefferson University, priority 1994, dated 1995).
Where two headings read alike, the source gives them in different places. Bridge positions count the residues as written; N and C are the ends. Square brackets hold non-standard residues; d marks the D form. Ends that are not written are not given here. Peptide text beside a SMILES is read from it.

Assays:
p6 cells = conditions: 48 hours in SFM after stimulation with 20 ng/ml IGF-1
[1] = system: WI-38 human diploid fibroblasts; assay: Growth of WI-38 cells in serum-supplemented medium; format: cell-based; conditions: 500 ng/ml, 10% FBS, 48 hours
Protocol: After treatment, the cells were stimulated with 10% FBS.
In these experiments, the inhibitory effect of JB3 (D-amino acids) was tested in serum-supplemented medium. […] The same results were obtained with p6 cells (FIG. 7) and with two lines of prostatic carcinoma cells, DU48 and PC3 (FIG. 8).

cells in culture = assay: Growth, toxicity and reversibility in cells in culture (summary statements); format: cell-based
Excerpt: Using the amino acid sequence of IGF-1, and the molecular modelling described above, we have synthesized short peptides which function as analogs of IGF-1. A peptide that was synthesized to comprise the last 12 amino acids of the IGF-1 sequence, when used at nanogram concentrations, completely abolishes the proliferation of a variety of cells. The peptide is non-toxic, i.e., the cells exposed to it remain viable for long periods of time. The inhibitor effect is also reversible, i.e., when the peptide is removed and growth factors are added again, the cells resume proliferation. Inhibition is close to 100%, and it should apply to all cells that require the IGF-1/IGF-1 receptor interaction for growth. These cells include the following: fibroblasts, smooth muscle cells, chondrocytes and osteoblasts, hemopoietic cells of various lineages and keratinocytes. Several of these cell types have been actually tested, and the inhibition by the IGF-1 analog is efficient (almost 100%), and reproducible. For instance, when using the IGF-1 analog, we have inhibited the growth of fibroblasts, and fibroblast-like cells, of T-lymphocytes and of epithelial cells derived from carcinoma of the prostate.
These peptides are nontoxic at the concentrations used (up to 5 μg/ml) and their effect is reversible. They inhibit a variety of cell types, as predicted from the finding that the activation of the IGF-1 receptor is required for the growth of many normal and transformed cells.

Molecule	inhibition of growth of IGF-1-stimulated p6 cells (p6 cells; 1 μg/ml peptide)	suppression of growth of WI-38 cells [1]	inhibitory effect on the growth of cells in culture (cells in culture)	reversibility of the inhibitory effect (cells in culture)	toxicity to cells (cells in culture; at the concentrations used (up to 5 μg/ml))	activity in the presence of serum (cells in culture; presence of serum)	inhibition of growth of IGF-1-stimulated p6 cells (p6 cells; 500 ng/ml peptide)
C[C@@H](O)[C@@H]1NC(=O)CNC(=O)[C@@H](N)CSSC[C@H](C(=O)O)NC(=O)[C@H](CCCNC(=N)N)NC(=O)[C@H](CCCNC(=N)N)NC(=O)[C@H](CO)NC(=O)[C@H](CO)NC(=O)[C@H](CO)NC(=O)CNC(=O)[C@H](Cc2ccc(O)cc2)NC(=O)CNC1=O [JB2] (H-CGTGYGSSSRR[dC]-OH; disulfide 1-12)	approximately 80%						
Cys Ser Lys Ala Pro Lys Leu Pro Ala Ala Tyr Cys ([dC][dS][dK][dA][dP][dK][dL][dP][dA][dA][dY][dC]; disulfide 1-12 (inferred)) [JB3]		completely suppresses	profound inhibitory effect	reversible	nontoxic	active	completely inhibits
